Results taken from the supplement of paper PMC3334620.
Over roughly 33,000 sequences, “E-score (-0.5 to 0.5)” has its median near -0.054; the highest 2% begin near 0.35. Some of the results follow.

Molecular target: T1, Stb5 (UniProt P38699)
T1 sequence: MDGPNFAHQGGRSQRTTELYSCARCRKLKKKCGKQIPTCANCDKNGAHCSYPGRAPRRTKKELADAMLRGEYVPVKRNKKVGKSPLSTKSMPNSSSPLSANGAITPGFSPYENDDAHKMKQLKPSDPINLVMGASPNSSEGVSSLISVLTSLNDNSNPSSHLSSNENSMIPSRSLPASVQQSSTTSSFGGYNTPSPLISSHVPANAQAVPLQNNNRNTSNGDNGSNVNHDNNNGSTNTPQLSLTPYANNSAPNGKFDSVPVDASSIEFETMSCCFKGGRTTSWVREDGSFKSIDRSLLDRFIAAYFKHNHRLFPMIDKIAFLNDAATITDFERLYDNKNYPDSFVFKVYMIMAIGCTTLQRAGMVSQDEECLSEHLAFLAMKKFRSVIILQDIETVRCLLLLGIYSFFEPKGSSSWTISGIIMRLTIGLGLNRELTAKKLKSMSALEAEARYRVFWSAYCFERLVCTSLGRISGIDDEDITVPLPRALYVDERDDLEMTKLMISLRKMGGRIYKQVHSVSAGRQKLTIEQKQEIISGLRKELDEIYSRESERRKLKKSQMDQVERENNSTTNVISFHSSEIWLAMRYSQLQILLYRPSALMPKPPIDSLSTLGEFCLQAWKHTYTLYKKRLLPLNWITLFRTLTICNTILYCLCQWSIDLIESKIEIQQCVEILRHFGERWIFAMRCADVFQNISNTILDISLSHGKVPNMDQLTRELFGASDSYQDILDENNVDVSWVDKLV
Test: PBM E-score (8-mer binding enrichment) (E-score (-0.5 to 0.5)); higher = stronger / more preferred TF binding; most listed sequences are background and not binding sites
Conditions: protein concentration: 200 nM; construct: GST-full length
Method in brief: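 Yeast transcription factors carrying a GST tag, as full-length proteins or DNA-binding domains, were produced by PURExpress in vitro transcription/translation. About 100-200 nM protein was applied to universal all-10-mer Agilent arrays, double-stranded by primer extension on fresh or once-stripped slides. Bound protein was detected with fluorescent anti-GST, and scans were normalised with masliner. The Universal PBM Analysis Suite gave each ungapped eight-base word, pooled with its reverse complement, an E-score, a modified Wilcoxon-Mann-Whitney statistic.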

Sequence | PBM E-score
AAGCTCCG | 0.429
CCCGTTAC | 0.22
TCGTCAAA | -0.0156
AAACACAG | -0.0631
CTACGGTA | 0.0875
AGAGTGAT | -0.258
GTTAATTA | 0.0587
CTTTAACA | 0.251
AGCCGGGA | 0.091
ACGGTTCT | 0.108
ATGTCAGC | -0.057
ATGTTCTC | -0.11
CTACTTTC | -0.0867
AACGGACG | 0.224
CGCGGCGA | 0.292
AGTTATGA | 0.0258
ATCGAGTA | -0.218
TCCACTCA | -0.0942
CTTTGTGC | -0.168
ATACCCTC | 0.0676
CCGCATTA | 0.243
AAAATAAA | -0.0256
CGGTCGAC | 0.185
GTGTGCGA | -0.021
GTTGAGGA | -0.203

Sequence | PBM E-score
TGATGCCA | -0.269
CGGTTGTA | 0.309
ATTCAAAA | -0.0949
CGGCGAAC | 0.233
CTCGCATA | -0.173
ACTAGTCA | -0.164
AAGGGTTG | -0.236
CCGGCCCA | 0.153
CTACGAAC | -0.118
AAGTTACC | 0.104
GTGCCAAA | -0.0778
CCCGATAC | 0.285
AAATATCA | -0.0472
ATACAGAT | -0.219
TCTGAACA | -0.141
CTATTAGA | -0.136
CCAATAGG | -0.13
ATGGTCTA | -0.23
GAAACGTC | -0.0353
CGACCGGA | 0.285
GTGGAAGA | -0.047
TATTGAGA | -0.0554
ACCGGCGG | 0.403
CCTTTAAG | -0.0922
ACTGGCGG | 0.315

Sequence | PBM E-score
GTAAGTCA | -0.206
CTAGGTGC | -0.154
ACAGAGAA | -0.145
CGGCCGAC | 0.205
CGAAAAAG | 0.0805
ACGCCCGA | 0.208
ACTTCCCA | -0.166
AAAATTTA | -0.072
GCATCAAC | 0.0162
CCTGTAAG | -0.299
CCGGATAG | 0.116
ACCAAAAG | -0.113
AATGCAGC | -0.219
GGGGCATA | 0.083
CGCGGTAC | 0.34
TACATCCA | -0.183
TCATAAGA | 0.0982
ACCGAGTG | 0.146
TAATTTCA | -0.123
CCTGGGCC | 2e-05
AGGCTGCG | 0.0438
CCAGTAAA | -0.0753
GACTCTAA | -0.0912
AGTATTCA | -0.0558
TCATCCCA | -0.235

Sequence | PBM E-score
ACCCTTCG | -0.0383
ACTTCAAA | -0.118
CAAAGTAA | -0.048
AATTTGGA | -0.246
ACCAATGC | 0.0645
AGAATTGG | -0.0192
CCGGAAAA | 0.178
CGATATAA | 0.0105
CCATCCGG | 0.111
CTACACAG | -0.206
GTAGGCAC | 0.00995
ACTTTCGG | 0.151
AACGATTC | -0.141
CAAGTCGG | 0.227
AGTACAGG | 0.0943
GCGAAAGC | -0.214
ATAATGTC | 0.298
AGCATTTG | -0.103
AAAGAAGG | -0.116
CCGTAACA | 0.145
CGGCTGGC | -0.154
ACACGACG | -0.105
ATGTAAGA | -0.01
ATTTGTCA | -0.113
ACTTCCAA | -0.258

Sequence | PBM E-score
ATGCACAT | -0.152
CCGGGGAG | 0.188
ACCAGGGA | -0.324
ACTAGAAT | -0.0271
AACTATGT | -0.125
AATCAAGT | -0.0996
CAAACCGC | 0.126
ACGCGCAA | 0.102
GTGACTCA | -0.153
GCAGTCAC | -0.206
ACCACCTG | -0.0493
AATTGTTG | -0.215
CGATGCCA | -0.0879
CACTCATA | -0.162
ACAGATTG | -0.144
GATAAAGA | -0.0231
AAGGGCTC | -0.296
ATGACGAC | -0.12
GTCAACCA | -0.194
CGTCATTA | 0.103
CGTTTATC | -0.00571
ATCATCCC | 0.131
AACCAACA | -0.0255
ACTAAACA | -0.143
ATAGTGGG | -0.0958

Sequence | PBM E-score
ACCACGCG | 0.0234
CGCGTGGA | 0.0379
CGTGGCAG | -0.242
GTTAGGGA | -0.225
AGTGACCG | 0.09
GCCTAGGC | -0.0482
CCTGGCTC | -0.184
ACGTCTAG | -0.198
ACTCACGG | 0.172
CCGACGAA | 0.293
CAGTAAGA | -0.121
ACCGTGGA | 0.299
AGTGGTGC | -0.0849
AGGTGAGC | -0.045
ACCCCCTG | -0.11
GCCTGACC | 0.0907
GTAATGGA | -0.116
GACCATGC | -0.196
AAGACTTC | -0.218
CCGTCAGG | 0.0905
CCGATACG | 0.31
ACTCCTGG | -0.152
AACGAACA | 0.09
GGCGCCGA | 0.282
AGCCTGCC | -0.229

Sequence | PBM E-score
TCCAAAAA | -0.0241
CAACGTCA | -0.267
GAGACCGA | 0.257
AACCGCGT | 0.186
CTAGGAGA | -0.2
CACGTTCG | -0.0575
ATACAAAC | 0.0434
ATAGGCCG | 0.219
CACAGGTC | -0.107
GTACTTAA | -0.00623
CCCCTAAG | -0.23
CGTTGCCC | 0.0438
GAATTGGA | -0.02
CATGAACC | -0.0866
CACGTAGC | -0.0959
TGACTCCA | -0.325
TTAATAAA | 0.077
ATTTTCGA | -0.0569
GATGTCCC | 0.0843
GCCTTAGC | 0.0356
GTGGTCTA | -0.247
CCTAACCC | 0.0781
